The subject of series [1] is J774A.1 cells. Description: cells. The format is cell-based, mouse.
In series [2] the test system is J774A.1 cells. The procedure: At 24, 48, 72 and 96 hours, the cells were stained and analyzed by flow cytometry methods known in the art. The cells (1×10^6) were resuspended in Fc block (anti CD16/CD32 antibody diluted in RPMI containing 10% FBS) (BD Biosciences, San Diego, Calif.), incubated on ice for 30 minutes, centrifuged and stained with either isotype control antibody or FITC conjugated CD45 antibody (BD Biosciences, San Diego, Calif.). After incubation on ice for 60 minutes, the cells were washed and resuspended in 3.7% formaldehyde. FACS analysis was performed using a FACSCalibur flow cytometer (BD Biosciences, San Diego, Calif.) and methods known in the art. Data was analyzed using FlowJo software (Tree Star, Inc; Ashland Oreg.).

[3] abbreviates: Mus musculus, J774.A1, read-out: ED50 (μM).

Where two headings read alike, the source gives them in different places.

As to `O=C1C(SCCO)=C(SCCO)C(=O)c2ccccc21` [NSC 95397], the values for the EC50 in the series with J774A.1 cells [1] (setting [3]) and with J774A.1 cells [1] (read-out: ED50) were 5 to 25 µM and 6 to 12 µM, respectively.

For `O=C1C=C(SCCO)C(=O)c2ccccc21` [NSC 148596], the EC50 with J774A.1 cells [1] (setting [3]) fell in the range of 5 to 25 µM.

For `NC(=O)CCSC1=CC(=O)c2ccccc2C1=O` [NSC 270011], the figures for the EC50 in the series with J774A.1 cells [1] (setting [3]) and in the series on J774A.1 cells [1] (read-out: ED50) were 5 to 25 µM and 6 to 12 µM, respectively.

Consider `NC(=O)CCCSC1=CC(=O)c2ccccc2C1=O` [NSC 270012], for which the EC50 in the series on J774A.1 cells [1] (setting [3]) fell in the range of 5 to 25 µM; in the series with J774A.1 cells [1] (read-out: ED50), 6 to 12 µM.

For “CD45 PMO (CCACAAACCCATGGTCATATC; all phosphorodiamidate morpholino (PMO))”, in the series with J774A.1 cells [2], the “toxicity to the cells” value is “not toxic”.
